Like-named read-outs stand apart in the source and are kept apart here. No constants are given. Whether binding was seen depends on the method and setting. For some assays here: Binding seen in cells or lysates may run through a third protein. Some binding calls cover weakened binding; strength is not graded here. Sequences can lack the tags named with a protein.
T1: His tag-fused MYLIP expressed in 293T cells (UniProt Q8WY64)
T1 sequence: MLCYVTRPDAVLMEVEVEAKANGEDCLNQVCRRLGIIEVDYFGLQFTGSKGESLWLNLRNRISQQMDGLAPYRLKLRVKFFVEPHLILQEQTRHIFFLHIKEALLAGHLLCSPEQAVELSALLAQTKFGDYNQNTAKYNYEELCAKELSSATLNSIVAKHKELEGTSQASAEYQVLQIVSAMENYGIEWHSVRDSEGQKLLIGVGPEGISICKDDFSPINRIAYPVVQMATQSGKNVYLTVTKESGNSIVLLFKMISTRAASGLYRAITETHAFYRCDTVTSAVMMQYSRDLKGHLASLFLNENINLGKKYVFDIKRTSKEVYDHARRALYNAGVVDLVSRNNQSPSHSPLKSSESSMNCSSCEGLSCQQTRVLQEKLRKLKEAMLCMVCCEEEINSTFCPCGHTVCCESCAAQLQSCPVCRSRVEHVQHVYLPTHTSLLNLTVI

By UniProt entry, the sequences of proteins in these tests, tags left out. Where a name states a change or a piece, a line headed by the entry shows the natural chain unless it says otherwise.
UniProt P51668: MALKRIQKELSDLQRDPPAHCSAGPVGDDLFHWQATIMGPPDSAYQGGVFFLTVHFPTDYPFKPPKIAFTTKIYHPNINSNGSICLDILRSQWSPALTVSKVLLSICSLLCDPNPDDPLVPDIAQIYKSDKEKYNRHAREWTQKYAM
UniProt P10275: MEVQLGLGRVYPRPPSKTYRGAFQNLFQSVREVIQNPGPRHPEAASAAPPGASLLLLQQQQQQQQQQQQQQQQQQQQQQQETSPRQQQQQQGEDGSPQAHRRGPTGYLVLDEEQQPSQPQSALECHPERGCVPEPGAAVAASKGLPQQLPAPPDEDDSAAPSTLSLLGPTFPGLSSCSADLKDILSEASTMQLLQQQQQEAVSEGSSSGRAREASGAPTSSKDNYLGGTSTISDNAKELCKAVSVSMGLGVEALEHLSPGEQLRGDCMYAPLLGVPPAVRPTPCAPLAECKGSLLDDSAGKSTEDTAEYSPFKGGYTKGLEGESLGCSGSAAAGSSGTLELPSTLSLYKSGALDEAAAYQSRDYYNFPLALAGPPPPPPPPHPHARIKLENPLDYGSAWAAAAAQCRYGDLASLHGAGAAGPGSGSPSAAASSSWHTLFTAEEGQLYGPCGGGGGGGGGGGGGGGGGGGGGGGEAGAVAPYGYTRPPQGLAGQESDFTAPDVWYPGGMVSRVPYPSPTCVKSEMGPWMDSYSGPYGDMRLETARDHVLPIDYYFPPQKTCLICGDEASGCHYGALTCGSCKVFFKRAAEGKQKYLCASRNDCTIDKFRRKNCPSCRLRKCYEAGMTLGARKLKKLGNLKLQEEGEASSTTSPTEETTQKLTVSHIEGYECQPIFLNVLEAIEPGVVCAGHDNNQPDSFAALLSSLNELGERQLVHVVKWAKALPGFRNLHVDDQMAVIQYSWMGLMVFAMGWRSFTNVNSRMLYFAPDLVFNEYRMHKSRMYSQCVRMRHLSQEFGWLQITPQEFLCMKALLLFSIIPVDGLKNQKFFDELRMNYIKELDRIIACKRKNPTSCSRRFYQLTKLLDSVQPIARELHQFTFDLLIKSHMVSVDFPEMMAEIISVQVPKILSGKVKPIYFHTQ

T2: recombinant GST-fused RING domain of MYLIP (344-445 a.a.) (UniProt Q8WY64)
T2 sequence: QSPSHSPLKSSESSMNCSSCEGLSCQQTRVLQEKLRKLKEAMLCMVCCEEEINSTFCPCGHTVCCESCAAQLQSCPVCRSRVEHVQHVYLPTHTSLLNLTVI

B1: FLAG-CNPY2 (Canopy FGF signaling regulator 2) (protein, UniProt Q9Y2B0 21-182)
chain: RRSQDLHCGACRALVDELEWEIAQVDPKKTIQMGSFRINPDGSQSVVEVPYARSEAHLTELLEEICDRMKEYGEQIDPSTHRKNYVRVVGRNGESSELDLQGIRIDSDISGTLKFACESIVEEYEDELIEFFSREADNVKDKLCSKRTDLCDHALHISHDEL

Tests used:
[1] = target: T1, His tag-fused MYLIP expressed in 293T cells; assay: co-IP; 293T cells transfected with expression plasmids for 24 h; whole cell extracts incubated with anti-His beads (Dynabeads His-Tag Isolation and Pulldown) at 4 C for 2 h; bound proteins detected by immunoblotting (Figures 2C and 3E)
[2] = target: UBE2D1-His expressed in 293T cells (UniProt P51668); assay: as above
[3] = target: T1, His tag-fused MYLIP expressed in 293T cells; assay: as above; remark: listed apart in the source
[4] = target: T2, recombinant GST-fused RING domain of MYLIP (344-445 a.a.); assay: pull-down; GST-RING (8 ug) on Glutathione Sepharose beads with recombinant UBE2D-His (5 ug) or immunoprecipitated FLAG-CNPY2 (5 or 15 ug), 4 C, 30 min; 50 mM Tris-HCl pH 7.5, 150 mM NaCl, 5 mM EDTA, 0.5% NP40; immunoblotting; both purified

binding [1]	binding [2]	binding [3]	binding [4]	Molecule
no binding				FLAG tag-fused AR (AF-1, 1-673 a.a.) (from UniProt P10275 1-673) (domain or fragment)
binds				FLAG tag-fused AR (AF-2, 555-920 a.a.) (from UniProt P10275 555-920) (domain or fragment)
	binds	binds weakly	binds weakly	B1
